Where “and” joins values, the source holds several entries; their conditions need not be identical. Identical values can stand only once. Hit rate of the full screen: of about 150,000 compounds, about 190 (0.13%) were called active. The inconclusive results got no clear call from the source; some entries with a clear call stand among them for comparison. Calls come from the whole dose curve; as a rule, active = well fitted inhibition curve with a large enough effect; inconclusive = small, poorly fitted or top-dose-only effect; inactive = flat fitted curve, though single readings scatter. Where the call is inconclusive, the potency comes from a doubtful curve fit.
molecular target: Polyunsaturated fatty acid lipoxygenase ALOX12 (Homo sapiens) (UniProt P18054); test: qHTS Assay for Inhibitors of 12-hLO (12-human lipoxygenase); details: purified 12-hLO, xylenol orange hydroperoxide absorbance; series mostly up to 57.1 µM; activity change, negative = inhibition: at the top concentration; note: nearly all actives have a fitted effect of over 55% in size
From the text: Assay Provider: Holman, T.R., University of California, Santa Cruz Screening Center PI: Austin, C.P. Screening Center: NIH Chemical Genomics Center [NCGC] Human lipoxygenase 12hLO is a member of the closely related lipoxygenase family of enzymes which catalyze the site-specific oxidation of arachidonic acid to various hormone precursor molecules and as such is a candidate for drug development in a variety of disease areas, such as cancer and inflammation. Inhibition of 12hLO activity was screened by utilizing arachidonic acid as a substrate. The extent of hydroperoxide product formation was measured by a secondary chromogenic reaction in which xylenol orange (XO, Sigma-Aldrich, cat. number 39,818-7) reacts with the ferric ions produced from the reaction between the hydroperoxide and ferrous ions. The Fe(III)-XO complex is characterized with red-shifted absorbance at 560 nm. A purified preparation of human 12hLO was supplied by Professor Ted Holman, University of California, Santa Cruz.
Assay Protocol: Buffer: 25 mM Hepes pH 7.0, 0.01% Triton X-100. Reagents/Controls: Buffer in columns 3 and 4 as negative control (no enzyme). Substrate solution: 40 uM arachidonic acid (Sigma-Aldrich, St. Louis, MO) final concentration dispensed throughout the plate. Enzyme: 150 nM 12hLO final concentration in columns 1, 2, 5-48. Column 1 is neutral (100% activity). Column 2 contained pin-transferred titration of NDGA (nordihidroguaiaretic acid, Sigma-Aldrich, N 5023, top concentration 20 mM in DMSO, then 1:3 dilution in duplicate). (Dilution factor: 23 nL into 4 uL.) Chromogenic detection reagent (divalent iron/xylenol orange, Fe-XO): 200 uM xylenol orange plus 300 uM ferrous ammonium sulfate prepared freshly in 50 mM sulfuric acid. Assay Steps: Three uL of enzyme were dispensed to 1536-well Greiner black clear bottom plates. Compounds and controls (23 nL) were transferred via Kalypsys PinTool. The plates were incubated for 15 min at room temperature, and then 1 uL of substrate solution was added to start the reaction. After room temperature incubation for 30 minutes, 4 uL of Fe-XO solution was added to each well and the plates were incubated for 30 min. The absorbance at 405 and 573 nm were measured using ViewLux (Perkin-Elmer) High-throughput CCD imager and absorbance protocol settings. The 573-to-405 absorbance ratio was used to compute reaction progress.
% is set by controls: 0 for no effect and ±100 for the full control effect; potency is the fitted concentration of half-maximal effect; tags give direction and shape of the fitted curve.

UniProt P18054, sequence (P18054 whole entry, looked up): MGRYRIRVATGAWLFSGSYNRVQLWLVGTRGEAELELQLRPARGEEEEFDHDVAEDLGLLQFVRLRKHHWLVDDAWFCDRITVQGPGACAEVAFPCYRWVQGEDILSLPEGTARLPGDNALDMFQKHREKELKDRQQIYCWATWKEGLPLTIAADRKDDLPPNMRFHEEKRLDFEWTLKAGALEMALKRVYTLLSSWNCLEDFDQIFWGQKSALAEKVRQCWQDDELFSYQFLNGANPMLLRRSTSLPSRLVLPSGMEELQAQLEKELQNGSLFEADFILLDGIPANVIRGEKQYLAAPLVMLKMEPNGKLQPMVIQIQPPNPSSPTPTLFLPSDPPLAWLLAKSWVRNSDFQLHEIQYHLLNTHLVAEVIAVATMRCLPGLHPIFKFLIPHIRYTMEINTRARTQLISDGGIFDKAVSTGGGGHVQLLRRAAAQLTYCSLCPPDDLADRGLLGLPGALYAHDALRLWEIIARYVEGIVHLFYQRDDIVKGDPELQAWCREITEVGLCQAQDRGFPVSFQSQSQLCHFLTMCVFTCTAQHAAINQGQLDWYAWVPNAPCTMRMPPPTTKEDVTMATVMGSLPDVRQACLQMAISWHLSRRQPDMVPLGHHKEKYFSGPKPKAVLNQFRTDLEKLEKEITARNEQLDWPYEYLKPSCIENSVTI

Row | SMILES | Potency | activity change, negative = inhibition
1 | CC(C)Oc1cc(-n2c(=S)[nH]c3ccccc3c2=O)c(Cl)cc1Cl | inconclusive: 25.1 µM [inhibitor, single point] | –
2 | CCOC(=O)C1=C(NC(=S)NC(=O)c2ccccc2)c2ccccc2CC12CCCC2 | inconclusive: 28.2 µM [inhibitor, single point] | –
3 | CC[C@H]1C(=O)OC[C@H]1Cc1cncn1C | inconclusive: 6.31 µM [inhibitor, single point] | –
4 | Oc1cccc2cccnc12 | inconclusive: 10 µM [inhibitor, partial curve] and inconclusive: 1.58 µM [inhibitor, partial curve] | –
5 | CCCCC(CC)COC(=O)c1ccccc1C(=O)OCC(CC)CCCC (stereo not given) | – | inactive: 2.91%
6 | COc1cc(-n2c(=S)[nH]c3ccccc3c2=O)c(Cl)cc1Cl | inconclusive: 35.5 µM [inhibitor, single point] | –
7 | O=c1[nH]c(=S)n(Cc2ccc(F)cc2)c(O)c1/C=N/N1CCCCCC1 | inconclusive: 28.2 µM [inhibitor, single point] | –
8 | O=C1c2ccccc2C(=O)N1SC1CCCCC1 | inconclusive: 17.8 µM [inhibitor, partial curve] | –
9 | Clc1ccc(C(c2ccc(Cl)cc2)n2cc[n+](C[C@@H](OCc3ccc(Cl)cc3Cl)c3ccc(Cl)cc3Cl)c2)cc1 | inconclusive: 25.1 µM [inhibitor, single point] | –
10 | [Cd+2].[Cl-].[Cl-] | active: 28.2 µM | –
11 | C[C@@H]1O[C@H]1P(=O)(O)O | inconclusive: 7.08 µM [inhibitor, single point] | –
12 | O=Cc1cn(CCCOc2ccccc2)c2ccccc12 | – | inactive: -1.45%
13 | Cl.Cl.Cl.Cl.Cl.Cl.N.N.N.N.NNNNN.NNNNN.O.O.[Ru].[Ru].[Ru] | inconclusive: 39.8 µM [inhibitor, single point] | –
14 | CN(C)C(=O)C(CCN1CCC(O)(c2ccc(Cl)cc2)CC1)(c1ccccc1)c1ccccc1 | inconclusive: 39.8 µM [inhibitor, single point] | –
15 | CCC(C)n1c(O)c(C(c2ccccn2)c2c(O)n(C(C)CC)c(=S)[nH]c2=O)c(=O)[nH]c1=S (stereo not given) | inconclusive: 14.1 µM [inhibitor, partial curve] | –
16 | Cc1cc(C)cc(N2C(=O)NC(=O)/C(=C\c3cccn3-c3ccc(Cl)cc3)C2=O)c1 | inconclusive: 31.6 µM [inhibitor, single point] | –
17 | O=C1CC(=O)N(c2ccc(Cl)cc2Cl)C(=O)N1 | inconclusive: 22.4 µM [inhibitor, partial curve] | –
18 | Oc1ccc(/C=N/NP(=S)(c2ccccc2)c2ccccc2)c(O)c1O | inconclusive: 10 µM [inhibitor, partial curve] | –
19 | CC(C)Nc1ccc(Nc2ccccc2)cc1 | inconclusive: 7.08 µM [inhibitor, full curve] | –
20 | CC(C)[C@@]1(NC(=O)[C@@H]2C[C@H]3c4cccc5[nH]cc(c45)C[C@@H]3N(C)C2)O[C@@]2(O)[C@H]3CCCN3C(=O)[C@H](Cc3ccccc3)N2C1=O | inconclusive: 25.1 µM [inhibitor, partial curve] | –

Row | SMILES | Potency | activity change, negative = inhibition
21 | CCOC(=O)c1c(-n2c(C)cc(C=C3C(=O)NC(=S)NC3=O)c2C)sc2c1CCCC2 | inconclusive: 39.8 µM [inhibitor, single point] | –
22 | C[N+](C)(C)CC#CCN1CCCC1=O | inconclusive: 4.47 µM [inhibitor, single point] | –
23 | CC1OC(=O)C(C(C)C)NC(=O)C(C(C)C)OC(=O)C(C(C)C)NC(=O)C(C)OC(=O)C(C(C)C)NC(=O)C(C(C)C)OC(=O)C(C(C)C)NC(=O)C(C)OC(=O)C(C(C)C)NC(=O)C(C(C)C)OC(=O)C(C(C)C)NC1=O (stereo not given) | inconclusive: 25.1 µM [inhibitor, single point] | –
24 | Cc1ccccc1C(O)(Cc1ccccc1)C1CN2CCC1CC2 (stereo not given) | – | inactive: 7.35%
25 | NC(N)=Nc1ccc2[nH]c3c(c2c1)C[C@]1(O)[C@@H]2Cc4ccc(O)c5c4[C@]1(CCN2CC1CC1)[C@H]3O5 | inconclusive: 39.8 µM [inhibitor, single point] | –
26 | CCCCOCCCn1c(N)c(C(=O)OCCOC)c2nc3ccccc3nc21 | inconclusive: 20 µM [inhibitor, partial curve] | –
27 | COC(=O)C(O)(c1ccc(NC(=S)NC(=O)c2ccc(Cl)cc2Cl)c(C)c1)C(F)(F)F (stereo not given) | inconclusive: 28.2 µM [inhibitor, single point] | –
28 | O=C(O)c1ccccc1-c1c2cc(Br)c(=O)cc-2oc2[c]([Hg])c(O)c(Br)cc12 | inconclusive: 8.91 µM [inhibitor, full curve] | –
29 | O=C1CC(c2ccc(O)cc2)Oc2cc(O)cc(O)c21 (stereo not given) | inconclusive: 35.5 µM [inhibitor, single point] | –
30 | S=C(S)N1CCCC1 | inconclusive: 25.1 µM [inhibitor, single point] and inconclusive: 7.08 µM [inhibitor, full curve, poor fit] | –
31 | Cn1c(O)c(C=NC2C(=O)C3(C)CCC2C3(C)C)c(=O)n(C)c1=O (stereo not given) | – | inactive: 4.51%
32 | Cc1ccc(N2C(=O)/C(=C/c3ccc(CN(CCC#N)S(C)(=O)=O)o3)C(=O)NC2=S)cc1 | inconclusive: 22.4 µM [inhibitor, single point] | –
33 | COC(=O)C1=Nc2ccccc2/C1=C\c1c(O)n(-c2ccc(OC)cc2)c(=O)[nH]c1=O | inconclusive: 14.1 µM [inhibitor, partial curve] | –
34 | O=C(O)c1cc[c]([Hg][S]c2ncnc3nc[nH]c23)cc1 | inconclusive: 3.16 µM [inhibitor, single point] | –
35 | CC(Oc1ccc(Cl)cc1Cl)C(=O)Nc1ccc(S(=O)(=O)Nc2cnc3ccccc3n2)cc1 (stereo not given) | inconclusive: 25.1 µM [inhibitor, partial curve] | –
36 | Cc1nn(C2CCOC(C)(C)C2)c2c1C(c1ccc(OC(C)C)cc1)SCC(=O)N2 (stereo not given) | – | inactive: -9.63%
37 | CCCCN1C(=O)/C(=C\c2ccco2)C(=O)N(CCc2ccccc2)C1=O | inconclusive: 25.1 µM [inhibitor, partial curve] | –
38 | CCCCN1C(=O)C(C2c3ccccc3C(=O)N2Cc2ccccc2)C(=O)NC1=S (stereo not given) | inconclusive: 39.8 µM [inhibitor, single point] | –
39 | O=[N+]([O-])c1ccc(Nc2ccccc2)cc1 | inconclusive: 39.8 µM [inhibitor, single point] | –
40 | O=[N+]([O-])c1cc(O)c(O)c([N+](=O)[O-])c1 | inconclusive: 12.6 µM [inhibitor, full curve] | –

Row | SMILES | Potency | activity change, negative = inhibition
41 | O=C1OC(c2cc(I)c(O)c(I)c2)(c2cc(I)c(O)c(I)c2)c2ccccc21 | inconclusive: 11.2 µM [inhibitor, partial curve] | –
42 | COc1cc(NS(=O)(=O)c2ccc(NC(=S)NC(=O)CC(C)C)cc2)nc(OC)n1 | inconclusive: 31.6 µM [inhibitor, single point] | –
43 | COC(=O)C1=C(C)NC(C)=C(C(=O)OC)C1c1ccccc1[N+](=O)[O-] | inconclusive: 22.4 µM [inhibitor, single point] and inconclusive: 31.6 µM [inhibitor, single point] | –
44 | CCN(CC)CCCN=Cc1c(O)n(Cc2ccc(F)cc2)c(=O)[nH]c1=O | – | inactive: 4.22%
45 | CC(C)=CCCC1(C)C=Cc2c(O)c3c(c(CC=C(C)C)c2O1)OC12C(=CC4CC1C(C)(C)OC2(C/C=C(/C)C(=O)O)C4O)C3=O (stereo not given) | inconclusive: 25.1 µM [inhibitor, single point] | –
46 | C(#CCN1CCOCC1)COCC#Cc1ccccc1 | – | inactive: 3.26%
47 | CN(C)C(=S)SSC(=S)N(C)C | inconclusive: 2.51 µM [inhibitor, full curve, poor fit] | –
48 | O=C1C=CC(=O)c2c1ccc1c2ccc2ccccc21 | inconclusive: 15.8 µM [inhibitor, single point] | –
49 | Nc1cc(Cl)ccc1O | active: 20 µM | –
50 | CC(=O)Oc1ccc(Cl)c2cccnc12 | inconclusive: 2.24 µM [inhibitor, full curve] | –
51 | O=C1NC(=O)C2(Cc3ccccc3N3CCCC32)C(=O)N1c1ccc(Cl)cc1 (stereo not given) | inconclusive: 7.94 µM [inhibitor, partial curve] | –
52 | Cc1c2ccncc2c(C)c2c1[nH]c1ccccc12 | inconclusive: 39.8 µM [inhibitor, single point] | –
53 | CC(=O)Oc1c2c(c(CC=C(C)C)c3c1C(=O)C1=CC4CC5C(C)(C)OC(C/C=C(\C)C(=O)O)(C4=O)[C@]15O3)OC(C)(CCC=C(C)C)C=C2 (stereo not given in full) | inconclusive: 12.6 µM [inhibitor, partial curve] | –
54 | COC(=O)C(O)(c1ccc(NC(=S)NC(=O)c2ccccc2)cc1)C(F)(F)F (stereo not given) | inconclusive: 15.8 µM [inhibitor, partial curve] | –
55 | O=C(O)c1cccc2c1NC(C(=O)O)C1CC(Sc3ccccc3[N+](=O)[O-])C(Cl)C21 (stereo not given) | inconclusive: 12.6 µM [inhibitor, partial curve] | –
56 | CCOC(=O)c1c(C)n(Cc2ccco2)c2ccc(O)cc12 | inconclusive: 7.08 µM [inhibitor, partial curve] | –
57 | Cc1nc2ccccc2c(=O)n1-c1cccnc1 | – | inactive: 42.8%
58 | Cc1cccc(N2C(=O)NC(=O)/C(=C\c3cnn(-c4ccccc4)c3)C2=O)c1 | inconclusive: 39.8 µM [inhibitor, single point] | –
59 | O=C(/C=C/c1ccc2c(c1)OCO2)c1c(O)n(CCC2=CCCCC2)c(=O)[nH]c1=O | – | inactive: -1.9%
60 | O=c1[nH]c(=S)n(C2CC2)c(O)c1/C=N/Nc1cccc2ccccc12 | inconclusive: 35.5 µM [inhibitor, single point] | –

From PubChem BioAssay AID1452 (National Center for Advancing Translational Sciences (NCATS), 2008)
